In the supplement of paper PMC3334620:
In all, about 33,000 sequences were measured (“E-score (-0.5 to 0.5)”: median about -0.041, highest 2% from about 0.37 on). The list shows a part of the results.

target: T1, Ecm22 (UniProt Q05958); assay: PBM E-score (8-mer binding enrichment) (E-score (-0.5 to 0.5)); higher = stronger / more preferred TF binding; most listed sequences are background and not binding sites; settings: protein concentration: 200 nM; construct: GST-full length
T1 sequence: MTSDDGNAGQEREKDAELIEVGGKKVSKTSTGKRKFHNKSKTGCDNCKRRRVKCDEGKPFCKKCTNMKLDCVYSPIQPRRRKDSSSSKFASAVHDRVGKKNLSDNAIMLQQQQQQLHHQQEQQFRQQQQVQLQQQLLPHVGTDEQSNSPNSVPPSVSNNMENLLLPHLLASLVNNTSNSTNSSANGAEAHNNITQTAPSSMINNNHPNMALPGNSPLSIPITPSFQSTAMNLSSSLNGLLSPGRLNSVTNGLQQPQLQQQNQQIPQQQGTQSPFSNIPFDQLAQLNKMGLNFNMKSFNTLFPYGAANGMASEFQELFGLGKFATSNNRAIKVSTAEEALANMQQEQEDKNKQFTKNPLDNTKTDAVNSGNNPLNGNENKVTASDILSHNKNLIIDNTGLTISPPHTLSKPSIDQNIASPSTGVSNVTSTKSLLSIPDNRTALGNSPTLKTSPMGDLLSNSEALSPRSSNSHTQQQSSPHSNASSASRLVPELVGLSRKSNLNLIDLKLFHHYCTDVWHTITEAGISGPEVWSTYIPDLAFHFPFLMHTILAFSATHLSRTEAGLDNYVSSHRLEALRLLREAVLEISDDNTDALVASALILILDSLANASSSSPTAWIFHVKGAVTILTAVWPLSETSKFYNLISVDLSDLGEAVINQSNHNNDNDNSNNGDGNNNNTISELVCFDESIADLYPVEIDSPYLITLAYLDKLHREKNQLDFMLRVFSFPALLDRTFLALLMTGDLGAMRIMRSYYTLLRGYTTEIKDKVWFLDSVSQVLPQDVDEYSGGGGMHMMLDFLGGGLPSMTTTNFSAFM
Outline: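 Detection of bound protein used fluorescent anti-GST, with scans normalised by masliner. The proteins were GST-tagged yeast transcription factors applied at about 100-200 nM to universal all-10-mer Agilent arrays made double-stranded by primer extension. Each ungapped eight-base word, pooled with its reverse complement, was scored with an E-score from the Universal PBM Analysis Suite.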

Sequence	PBM E-score
ACTAGTAG	-0.0744
AGAACGAT	0.342
CTTCGACA	-0.0624
ATGCGCAC	-0.048
CTTAGAGC	-0.0805
AGCTTCCA	-0.206
ACAGAGGT	-0.125
AGCGATAA	0.132
GGGTGGTA	0.0605
CGTTGAAC	0.207
ACAGGCCT	-0.314
CGTAACAC	0.289
GCTTCCGA	0.0694
CTCTGTAA	0.0371
ATATGGTG	-0.0638
CCAACTTC	-0.0473
GACCAGTA	-0.0962
ACCCCCAG	-0.109
GTGAATTA	-0.199
CCATCCAA	-0.19
CATTCGGA	0.226
CGGGGTAA	-0.0415
ACAATTTC	0.086
ATCTGCCG	0.0109
CCACACGC	0.0055

Sequence	PBM E-score
GACCACGC	0.0412
TCTCGCCA	0.141
CGTGCTAC	-0.188
ACCTGGTC	0.00669
CAAGTAAA	0.0478
CGTTGTTC	0.205
CTGGTAGA	-0.228
GCTTGGAA	0.0473
AGGTAATG	-0.111
AATTTAAA	-0.00236
ACGACCAA	0.371
CTCGTGAC	0.166
CCTGGCCG	-0.124
ACACTTCG	0.0297
GGACCTAC	0.111
CACAGAGG	-0.288
CCTATGCA	-0.252
AAATTTCT	0.026
GCTAGGAA	-0.201
AGTGCTCG	0.271
CCTACGCG	0.0452
CCAACAGA	-0.0688
CAGAAAAA	-0.0648
CACCTACC	-0.245
ACACCGCT	-0.0892

Sequence	PBM E-score
AGCGGGGA	-0.118
CGGGTTTA	0.086
GGGCTAAA	-0.0448
ATCTCGAG	-0.0735
CATTCTAG	-0.363
ACACGTAC	0.281
AGAGGCGA	-0.00468
CAACGGTC	0.0501
AGAGGCAA	-0.203
GGAGGCCA	-0.249
GAGCAATC	-0.00427
ACCTTCTA	-0.109
GCCCCATA	-0.176
ATCACACC	-0.0607
CATGTGGA	-0.121
GGGCTCAC	-0.188
ACCAGGTC	-0.198
AGACGAAC	0.295
CTCTACAC	-0.0808
GCTCTGAA	-0.0872
ATCCGGGA	-0.0993
AGGATATC	-0.0716
AGTGTCCG	0.0467
ATAGTCAC	0.113
AAGGTCCC	-0.0975

Sequence	PBM E-score
ACGGTAAC	0.151
GCCACAAA	0.0966
ACGAATCT	0.297
CTTGATCA	-0.0854
CAGACCGA	0.14
CGATTCAA	0.086
CCTATGTA	0.0158
AGCAGGTA	-0.215
GTATAGAC	0.263
CGGCGCTA	-0.0667
ACCAAGGC	-0.171
CGCAAACG	0.348
CAAACCGG	-0.0909
GCAGATGA	-0.129
ATTAAATA	0.0128
CCTGCAAC	-0.104
ATACAGGC	-0.112
ATTATCAG	-0.181
AGATGTAC	0.0567
AGGGTAAC	0.00028
CGATGAGA	0.0548
CGCATAAG	0.136
AAGATACG	0.368
CATACTCC	-0.155
AGTTGCTG	-0.068

Sequence	PBM E-score
GCTGAAAC	-0.0362
AGACTCGC	0.0569
ACGGGGCA	0.114
AATGCTGG	-0.0144
GACAGCTA	-0.115
ATGAGTCG	0.129
AAACCAAG	0.0355
ATTCTGGG	-0.192
CCCGCGGA	-0.211
AATTGCTA	-0.0544
CTCCTCCC	-0.103
CCTTACGC	0.205
ACCCCCGT	-0.048
CATATTAC	-0.0537
AATTACTA	0.0182
CATTAAGA	-0.0826
GGGCTCTA	0.0124
ACATAAAG	-0.0723
AGCAGCCC	-0.182
TATGCAGA	0.0611
CGATACCG	0.05
AAGTAGGA	-0.18
ACAGGTTC	-0.0673
CCCATCGA	-0.0449
CGATATGA	0.038

Sequence	PBM E-score
GTAAGTGA	0.134
ACTTGCTA	-0.215
GGTCGGAA	0.161
AGGACGTA	-0.0985
ATGCACAG	-0.0432
CAGTCAAC	0.0317
AAAACAGG	-0.288
AGCCTGAG	-0.224
CAGTTTTC	-0.0483
AGACAACC	-0.0137
AATGTCAA	-0.135
ATATTTAG	-0.121
GATCCGGA	0.042
ATAGCATC	-0.162
ATACGGCG	0.406
AATTTCGC	0.116
CGCCAGAA	0.171
CATTCCAA	-0.0774
TTAGGAAA	-0.227
AAGCTCCA	-0.0661
ACCGGCCC	-0.085
CTAGAAGA	-0.0952
AGGAATAC	0.0181
TGGGGCAA	-0.172
GCGGTCGA	0.202

Sequence	PBM E-score
CGGGTATC	0.105
GGGTTATA	-0.0775
ATACACAG	-0.0736
CATAAAGC	-0.164
GCATCGAC	0.0138
TAACCCCA	-0.181
CGGCCACC	-0.135
CCAATGAC	-0.169
GATCGTTA	0.211
CCAGGCGA	-0.359
ATCAGCTG	0.0299
CTTCCGAA	0.0953
GATGACGA	0.0108
AGGACACA	-0.0101
CACCAGAA	0.0178
TCCTAAAA	-0.0284
ATACCAAC	0.00422
AATTGCTG	0.0491
ACACGGCT	-0.0933
GGAGACGA	0.217
CCCTTGCA	-0.21
GCCATGAA	-0.149
